# Laboratory results taken from PMC4336329 (PLoS ONE, 2015).
# The whole screen tested about 310,000 compounds, of which about 14,000 (4.5%) showed an effect of 50% or more. The effect is printed as a negative number. Some of the results follow.
# Biological target: human ether-à-go-go-related gene (hERG) potassium channel (human, UniProt Q12809)
# Assay: primary screen, population patch clamp on CHO cells stably expressing hERG
# 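Further: peak tail current of the secondary pulse compared with the same well before compound.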
# Chain of human ether-à-go-go-related gene (hERG) potassium channel (Q12809 whole entry, looked up): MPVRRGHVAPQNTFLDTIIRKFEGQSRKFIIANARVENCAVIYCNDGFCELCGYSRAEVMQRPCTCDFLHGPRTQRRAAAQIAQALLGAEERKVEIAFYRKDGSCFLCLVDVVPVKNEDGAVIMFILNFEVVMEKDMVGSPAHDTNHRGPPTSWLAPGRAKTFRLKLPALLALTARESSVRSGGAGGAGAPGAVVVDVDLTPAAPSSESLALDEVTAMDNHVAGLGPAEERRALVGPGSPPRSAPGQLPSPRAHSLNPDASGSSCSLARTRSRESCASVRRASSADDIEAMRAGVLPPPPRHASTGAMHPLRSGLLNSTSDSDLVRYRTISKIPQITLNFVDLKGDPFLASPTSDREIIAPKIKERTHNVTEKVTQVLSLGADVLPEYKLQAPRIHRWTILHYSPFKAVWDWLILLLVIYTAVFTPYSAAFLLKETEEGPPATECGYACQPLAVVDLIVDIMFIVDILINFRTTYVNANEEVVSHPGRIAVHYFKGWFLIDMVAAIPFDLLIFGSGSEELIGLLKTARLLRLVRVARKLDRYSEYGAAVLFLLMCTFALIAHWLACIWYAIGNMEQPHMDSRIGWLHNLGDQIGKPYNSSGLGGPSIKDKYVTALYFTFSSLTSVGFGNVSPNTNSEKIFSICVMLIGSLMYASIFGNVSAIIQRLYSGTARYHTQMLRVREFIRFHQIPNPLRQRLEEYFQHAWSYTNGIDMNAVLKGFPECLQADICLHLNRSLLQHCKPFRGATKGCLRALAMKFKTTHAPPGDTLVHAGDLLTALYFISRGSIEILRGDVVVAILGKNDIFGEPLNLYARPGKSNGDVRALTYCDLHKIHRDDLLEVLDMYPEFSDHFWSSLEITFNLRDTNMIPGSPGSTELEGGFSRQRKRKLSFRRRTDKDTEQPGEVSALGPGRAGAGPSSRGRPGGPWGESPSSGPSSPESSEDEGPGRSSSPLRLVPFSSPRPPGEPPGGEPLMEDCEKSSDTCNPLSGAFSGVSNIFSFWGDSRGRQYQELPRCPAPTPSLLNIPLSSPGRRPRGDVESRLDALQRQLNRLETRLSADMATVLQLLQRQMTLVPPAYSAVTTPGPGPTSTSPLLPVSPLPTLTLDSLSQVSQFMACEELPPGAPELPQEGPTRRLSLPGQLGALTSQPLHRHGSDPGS
row,SMILES,"hERG current change (%, negative = inhibition) at 10uM"
1,COC(=O)c1sccc1NC(=O)c1c(C)c(-c2cccc(Cl)c2)nc2ccccc12,16.7%
2,O=C(CNC(=O)c1ccccc1F)NCCOc1ccccc1Cl,12.1%
3,CC(C)N(Cc1nc(-c2ccc(Cl)cc2)no1)C(=O)C12CC3CC(CC(C3)C1)C2,10.8%
4,CCOC(=O)CNC(=O)c1cn(CC(C)C)c(=O)c2cc(OC)c(OC)cc12,-24%
5,COc1ccc(C)cc1NC(=O)C1CCCN(S(=O)(=O)c2ccc3c(c2)CCCN3C(C)=O)C1 (stereo not shown),-2.38%
6,CCc1cccc(C)c1NC(=O)C1CCCO1 (stereo not shown),6.66%
7,CCOC(=O)c1sc(-c2cccc([N+](=O)[O-])c2)cc1N,27.7%
8,CNC(=S)Nc1sc2c(c1C(=O)OC)CCC2,9.71%
9,O=C(NC(=S)Nc1ccc2oc(-c3cccnc3)nc2c1)c1cccc(Cl)c1,-1.17%
10,CCCNc1nc2c(c(=O)[nH]c(=O)n2C)n1CCc1ccccc1,4.04%
11,COC(=O)CC1C(=O)NCCN1C(=S)Nc1ccccc1Cl (stereo not shown),13.3%
12,Cc1ccc2[nH]c(=O)c(CN(CCCN(C)C)C(=O)Nc3ccc(Cl)cc3)cc2c1,-66.1%
13,Cc1ccc(OCC(=O)NNC(=S)NC(=O)C2CCCCC2)c(C)c1,-0.527%
14,O=C1C(=O)N(c2ccccn2)C(c2cccc([N+](=O)[O-])c2)/C1=C(/O)c1ccc(Br)cc1 (stereo not shown),6.29%
15,COc1ccccc1-n1c(-c2cc(-c3ccco3)[nH]n2)n[nH]c1=S,1.06%
16,COc1ccc(OC)c(NC(=O)c2oc3c(c2C)C(O)CC(C)(C)C3)c1 (stereo not shown),5.4%
17,CC(OC(=O)c1ccc2c(=O)n3c(nc2c1)CCCCC3)C(=O)Nc1ccc(F)cc1Cl (stereo not shown),15.4%
18,CSc1ccccc1C(=O)NCc1ccc(F)cc1,2.61%
19,O=C1NC(=O)C(Cc2c[nH]c3ccccc23)N1 (stereo not shown),17%
20,NC(=O)CC(NC(=O)c1ccccc1)c1ccc(NCCc2ccc(Cl)cc2)c([N+](=O)[O-])c1 (stereo not shown),1.56%
21,CSc1nsc(SC)c1NC(=O)Nc1ccccc1C,9.65%
22,Cc1cccc2c(=O)cc(C)n(CC(=O)N3CCOCC3)c12,4.76%
23,COc1ccc(NC(=O)c2ccco2)cc1NC(=O)c1c(OC)cccc1OC,13.8%
24,COc1ccc(C(CNC(=O)c2cc(SC)ccc2Cl)N(C)C)cc1 (stereo not shown),-13.2%
25,Cc1cc(Br)ccc1NC(=O)CCSc1ccccc1,9.06%
26,COC(=O)c1sc(S(=O)(=O)NCc2cccs2)c(C(=O)OC)c1C,-19.1%
27,O=C(Cc1cccc2ccccc12)NNC(=O)Nc1cccc(Cl)c1,11.8%
28,O=C(Cc1ccc(Cl)cc1)Nc1ccc2c(c1)C(=O)NC2=O,-23%

row,SMILES,"hERG current change (%, negative = inhibition) at 10uM"
1,O=C(c1ccccc1)N(Cc1ccc(F)cc1)Cc1nc2ccccc2c(=O)[nH]1,-35%
2,O=C(COC(=O)c1cc[n+]([O-])cc1)NCc1ccccc1Cl,-1.49%
3,Cc1ccc(S(=O)(=O)C(CNC(=O)C(C)C)c2cccs2)cc1 (stereo not shown),14.7%
4,CC(C(=O)N1CCc2ccccc21)N1CCc2ccccc2C1 (stereo not shown),-18.9%
5,CCS(=O)(=O)c1ccc2c(c1)NC(=O)C(CCCl)O2 (stereo not shown),-5.5%
6,CC(C)Cn1c(N)c(C(=O)COC(=O)COc2cccc(C(F)(F)F)c2)c(=O)n(C)c1=O,-50.9%
7,O=c1ccc(-c2ccccc2)nn1Cc1ccc(F)cc1Cl,19.6%
8,C=CCN(C(=O)CCC(=O)Nc1cc(C)on1)C(C(=O)NC1CCCC1)c1ccc(OC)cc1OC (stereo not shown),0.0442%
9,CCCCn1c(NCc2ccncc2)nc2ccccc21,-48.2%
10,O=C(NCC1CCCO1)/C(=C\c1ccco1)NC(=O)c1ccccc1 (stereo not shown),10.3%
11,O=C(Nc1ccon1)C12CC3CC(C1)CC(n1cnc([N+](=O)[O-])n1)(C3)C2,-50.5%
12,COC/C=C/C1=CC2=CC(=O)C(C)(OC(=O)c3cnc4ccccc4n3)C(=O)C2=CN1CCc1ccccn1 (stereo not shown),13.2%
13,CS(=O)(=O)N(CC(=O)NCCc1ccccc1)c1cccc([N+](=O)[O-])c1,-14.7%
14,Cc1ccc(S(=O)(=O)N(C)C)cc1NC(=O)CSc1nc2ccccc2[nH]1,-29.4%
15,CN1CCN(c2ccc([N+](=O)[O-])c(N3CCCCC3)c2)CC1,-3.78%
16,CN1CCN(CC(=O)N(C)c2nc(-c3ccccc3)cs2)CC1,-33.8%
17,CC(=O)c1ccc(N2CCN(C(=O)/C=C/c3ccc(S(=O)(=O)NCc4ccco4)cc3)CC2)cc1,-36.9%
18,O=C(NCC1(N2CCOCC2)CCCCC1)c1ccc(Cl)c(S(=O)(=O)NCc2ccco2)c1,-52.1%
19,COc1cc(CN2CCNC(=O)C2CC(=O)NCCc2ncccc2C)cc(OC)c1 (stereo not shown),8.78%
20,Cl.O=C(CN1CCC(O)CC1)N1c2ccccc2C=Cc2ccccc21,-0.289%
21,COc1cccc(-c2noc(CCCC(=O)NC3CCCC3)n2)c1,2.42%
22,O=C(CN1CCN(Cc2ccccc2)CC1)NCCNc1ccc([N+](=O)[O-])cn1,-40.5%
23,C[C@H](NC(=O)C1CC(=O)N(c2ccc3c(c2)OCCO3)C1)C(=O)NC1CCCC1 (stereo partly shown),12.8%
24,COc1ccc(CNC(=O)c2onc(C)c2Cl)cc1,10.8%
25,O=c1[nH]c(-[n+]2ccccc2)c(/C=N/NC([S-])=Nc2ccccc2)s1,31.1%
26,COc1ccc(OC)c(C2CC(=O)Nc3n[nH]c(-c4ccccc4)c32)c1 (stereo not shown),9.86%
27,COc1ccc(CNC(=S)Nc2cc(C)ccc2C)cc1,-5.62%
